Screen size: about 1,100 compounds; about 390 (35%) were called active. The shares of active, inactive and inconclusive entries below differ from those in the screen. Calls follow the shape of the dose curve; as a rule, active = well fitted inhibition curve with a large enough effect; inconclusive = small, poorly fitted or top-dose-only effect; inactive = flat fitted curve, though single readings scatter. Where the call is inconclusive, the potency comes from a doubtful curve fit.
Target: Luciferin 4-monooxygenase (Photinus pyralis) (UniProt P08659)
Assay: qHTS of Nrf2 Activators: Hit Validation in Secondary FLuc Assay; also: nearly all actives have a fitted effect of over 65% in size
Conditions: firefly luciferase inhibition counter-screen, luminescence
Excerpt: Many diseases have some form of oxidative stress injury and ties to inflammation, causing a host of problems for the patient. The antioxidant response element (ARE) plays an important role in alleviating the harmful effects of oxidative stress. The antioxidant response element (ARE) is a transcriptional regulatory element involved in the activation of genes coding for a number of antioxidant proteins and detoxifying enzymes. These enzymes work in concert to protect tissues from oxidative insults and chemical toxicities in human hepatocytes and immune cells. The protective effects of ARE activation are primarily triggered through Nrf2 (NF-E2-related factor) binding to and activating AREs. It is known that Nrf2 controls the production of over 250 antioxidant and detoxification proteins (Hu et al., 2006), thereby protecting tissues by increasing cellular antioxidant content and suppressing inflammatory signaling pathways. The transcription factor Nrf2 is a central link between oxidative chemicals, such as phenolic antioxidants and electrophilic compounds, and the activation of ARE. Nrf2 levels are constitutively low as a consequence of its interaction with Keap1, which targets its degradation (Zipper and Mulcahy, 2002). Electrophiles react with key cysteine residues in Keap1, releasing Nrf2 and allowing its translocation to the nucleus. Once within the nucleus, Nrf2 complexes with coactivators such as p300, and binds to the AREs to induce gene transcription of cytoprotective enzymes, resulting in the prevention of toxicity. Activation of Nrf2 protects tissues by increasing cellular antioxidant content and suppressing inflammatory signaling pathways. Identifying novel and potent Nrf2 activators by using the AREc32 cell line to detect ARE activation by small molecules will lead to the identification and development of probes to study protective pathways in multiple tissues. These specific probes are essential to study the ARE pathway, and eventually to determine whether this pathway does activate genes that could protect against a host of diseases, including cardiovascular diseases, obesity, diabetes, Alzheimer's, and Parkinson's disease.
This project's aim is to identify novel and potent Nrf2 activators by using the AREc32 cell line to detect ARE activation by small molecules, which will lead to the identification and development of probes to study the ARE pathway. In this counter assay, we aim to identify false positive as identified from this primary assay using an FLuc assay with an inhibiting read-out.
NIH Chemical Genomics Center [NCGC]
NIH Molecular Libraries Probe Centers Network [MLPCN]
Assay Submitter (PI): Curtis Klaassen, University of Kansas Medical Center
Assess whether an activator in the primary assay potentially causes such activation by inhibitor-induced stabilization of the firefly luciferase reporter enzyme by determining whether it inhibits firefly luciferase in the presence of Km concentrations of its substrates (ATP and D-luciferin).
Potency is read from the fitted curve at half-maximal effect; tags tell the direction and shape of the fitted curve.

SMILES	Potency
Cc1cccc(C(=O)Nc2nnc(SCC(=O)NCc3ccco3)s2)c1	active: 2.39 µM
O=C(/C=C/c1ccccc1)c1c(O)n(CCc2ccccc2)c(=O)[nH]c1=O	inconclusive: 16.9 µM [inhibitor, partial curve]
Clc1ccccc1Nc1ncnc(-n2cccc2)n1	active: 2.13 µM
O=c1[nH]c(=S)[nH]c(O)c1N=Nc1ccc(S(=O)(=O)N2CCc3ccccc32)cc1	inconclusive: 15.1 µM [inhibitor, partial curve]
CCCCn1c(O)c(C(=O)/C=C/c2ccc3c(c2)OCO3)c(=O)[nH]c1=O	inconclusive: 37.9 µM [inhibitor, single point]

Reference: PubChem BioAssay AID651597 (National Center for Advancing Translational Sciences (NCATS), 2012)
